# Reference: US20250243260A1 (ALPINE IMMUNE SCIENCES, published 2025)
# Numbering of substitutions follows the chain as printed. Numbers in names are those of the source.
# B1: CD80-CD80-Fc_340 (Fc fusion)
# chain: VIHVTKEVKEYATLSCGHNVSVEELAQYRIYWQKEKKMVLTMMSGDLNIWPEYKNRTIFDITNNLSIVILALRPSDEGTYECVVLKYEKDAFKREHLAEVTLSVKADGGGGSGGGGSGGGGSVIHVTKEVKEYATLSCGYNVSVEELAQYRIYWQKEKKMVLTMMSGDLNIWPEYKNRTIFDITNNLSIVILALRPSDEGTYECVVLKYEKDAFKREHLAEVTLSVKADGSGGGGS[omitted - human IgG4 Fc with S228P (EU numbers)]
# notes: Tetravalent after Fc dimerization; also called tandem CD80_185/CD80_416
# B2: CD80-CD80-Fc_337 (Fc fusion)
# chain: B1 chain with E10G, Y11W, E132G, Y133W
# notes: Tetravalent after Fc dimerization; also called tandem CD80_180/CD80_415
# B3: CD80-CD80-Fc_342 (Fc fusion)
# chain: B1 chain with Y28T, E35D, L47M, Y87Q, T101R, Y150T, E157D, L169M, Y209Q, T223R
# notes: also called tandem CD80_197
# B4: CD80-Fc-CD80_336 (CD80_180 E10G/V11W/T28Y/M47L) (Fc fusion)
# chain: VIHVTKEVKGWATLSCGHNVSVEELAQYRIYWQKEKKMVLTMMSGDLNIWPEYKNRTIFDITNNLSIVILALRPSDEGTYECVVLKYEKDAFKREHLAEVTLSVKADGSGGGGS[omitted - human IgG4 Fc with S228P (EU numbers)]GGGGSGGGGSGGGGSVIHVTKEVKGWATLSCGYNVSVEELAQYRIYWQKEKKMVLTMMSGDLNIWPEYKNRTIFDITNNLSIVILALRPSDEGTYECVVLKYEKDAFKREHLAEVTLSVKAD
# notes: tetravalent after Fc dimerization
# B5: CD80_236-Fc (V11Y, T28Y, M47L, A71G) (Fc fusion)
# chain: VIHVTKEVKEYATLSCGHNVSVEELAQYRIYWQKEKKMVLTMMSGDLNIWPEYKNRTIFDITNNLSIVILGLRPSDEGTYECVVLKYEKDAFKREHLAEVTLSVKADGSGGGGS[omitted - human IgG4 Fc with S228P (EU numbers)]
# B6: CD80_233-Fc (V11Y, T28Y, M47L, V68M) (Fc fusion)
# chain: B5 chain with V68M, G71A
# B7: CD80-CD80-Fc_414 (tandem, V11Y, T28Y, M47L, A71G) (Fc fusion)
# chain: VIHVTKEVKEYATLSCGHNVSVEELAQYRIYWQKEKKMVLTMMSGDLNIWPEYKNRTIFDITNNLSIVILGLRPSDEGTYECVVLKYEKDAFKREHLAEVTLSVKADGGGGGSGGGGSGGGGSVIHVTKEVKEYATLSCGYNVSVEELAQYRIYWQKEKKMVLTMMSGDLNIWPEYKNRTIFDITNNLSIVILGLRPSDEGTYECVVLKYEKDAFKREHLAEVTLSVKADGSGGGGS[omitted - human IgG4 Fc with S228P (EU numbers)]
# notes: Tetravalent after dimerization of the Fc chains
# B8: CD80-CD80-Fc_337 (tandem, E10G, V11W, T28Y, M47L) (Fc fusion)
# chain: B1 chain with E10G, Y11W, E132G, Y133W
# notes: as for B7
# B9: CD80-CD80-Fc_340 (tandem, V11Y, T28Y, M47L) (Fc fusion)
# chain: B1 chain
# notes: as for B7
# B10: CD80_185-Fc (Fc fusion)
# chain: B5 chain with G71A
# notes: Variant CD80 IgV-GSGGGGS-human IgG4 Fc (S228P); also called V11Y, T28Y, M47L
# B11: CD80_180-Fc (Fc fusion)
# chain: B5 chain with E10G, Y11W, G71A
# notes: Variant CD80 IgV-GSGGGGS-human IgG4 Fc (S228P); also called E10G, V11W, T28Y, M47L
# B12: CD80_233-Fc (Fc fusion)
# chain: B5 chain with V68M, G71A
# notes: Variant CD80 IgV-GSGGGGS-human IgG4 Fc (S228P); also called V11Y, T28Y, M47L, V68M
# B13: CD80_234-Fc (Fc fusion)
# chain: B5 chain with V68L, G71A
# notes: Variant CD80 IgV-GSGGGGS-human IgG4 Fc (S228P); also called V11Y, T28Y, M47L, V68L
# B14: CD80_236-Fc (Fc fusion)
# chain: B5 chain
# notes: Variant CD80 IgV-GSGGGGS-human IgG4 Fc (S228P); also called V11Y, T28Y, M47L, A71G
# B15: CD80_185-Fc (V11Y, T28Y, M47L) (Fc fusion)
# chain: B5 chain with G71A
# B16: CD80_184-Fc (V11Y, A26Q, M47L, A71G, Y87R) (Fc fusion)
# chain: B5 chain with A26Q, Y28T, Y87R
# Target: T1, human CTLA-4 on CHO cells (human, UniProt P16410 36-223)
# T1 construct: whole, on cells; also called CHO/CTLA-4
# T1 sequence (P16410 36-223): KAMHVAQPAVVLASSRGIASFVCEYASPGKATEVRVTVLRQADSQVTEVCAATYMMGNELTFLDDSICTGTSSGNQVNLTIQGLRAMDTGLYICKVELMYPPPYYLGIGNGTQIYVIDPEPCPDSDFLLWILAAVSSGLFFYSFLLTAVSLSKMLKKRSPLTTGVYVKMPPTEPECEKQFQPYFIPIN
# Test: flow cytometry, CHO/CTLA-4 cells
# Protocol: (§1) Binding affinity to CD28 was determined using primary human T cells which endogenously express CD28. Binding to PD-L1 was determined using SCC152 cells transduced with human PD-L1. Binding to CTLA-4 was measured using Chinese hamster ovary (CHO) cells stably transduced to express human CTLA-4.
# (§2) For staining and analysis by flow cytometry, 75,000 human T cells, SCC152/PD-L1 cells, or CHO/CTLA-4 cells were plated in 96-well round-bottom plates. Cells were spun down and resuspended in staining buffer (PBS (phosphate buffered saline), 1% BSA (bovine serum albumin), 1 mM EDTA, and 0.1% sodium azide) for 20 minutes to block non-specific binding. Afterwards, cells were centrifuged, stain buffer aspirated, and then resuspended in 50 μL of a 1:5 serial dilution of each CD80-Fc candidate variant starting at 100 nM ending at 0.8 nM. Primary staining was performed on ice for 60 minutes, before washing cells in […] staining buffer three times. PE-conjugated anti-human Fc (Jackson ImmunoResearch, USA) was diluted 1:250 in 50 μL staining buffer and added to cells and incubated another 30 minutes at 4° C. Cells were washed two times in 150 μL stain buffer and then fixed in 2% formaldehyde/PBS for 5 minutes at room temperature. Samples were analyzed CytoFLEX LX flow cytometer (Beckman Coulter, USA). Median Fluorescence Intensity (MFI) was calculated for each cell type using the CytExpert software from Beckman Coulter.
# (§3) Binding assays were carried out to assess the specificity and affinity of multivalent proteins to cell-expressed CTLA-4, CD28, and PD-L1 counter structures.
Binder,Anti-Human Fc (MFI) at 0.8 nM [MFI],Anti-Human Fc (MFI) at 4 nM [MFI],Anti-Human Fc (MFI) at 20 nM [MFI],Anti-Human Fc (MFI) at 100 nM [MFI],fold change vs WT CD80 @20 nM [fold]
B1,236000,318000,318000,353000,0.38
B2,209000,205000,332000,–,0.4
B3,163000,217000,353000,358000,0.43

# Target: T2, human CD28 on cells (human, UniProt P10747 19-220)
# Test: cell-based or functional assay
Binder,Fold Increase over WT at 50 nM [fold],"Rel. Luminescence Units (RLU) at 2 nM, K562/OKT3/PD-L1 + Jurkat/IL-2 reporter [RLU]","Rel. Luminescence Units (RLU) at 10 nM, K562/OKT3/PD-L1 + Jurkat/IL-2 reporter [RLU]","Rel. Luminescence Units (RLU) at 50 nM, K562/OKT3/PD-L1 + Jurkat/IL-2 reporter [RLU]","Rel. Luminescence Units (RLU) at 250 nM, K562/OKT3/PD-L1 + Jurkat/IL-2 reporter [RLU]"
B1,5.6,12900,13200,13700,12900
B2,5.18,11600,12800,12600,11800
B3,6.19,11800,14600,15100,16100

# Target: T3, human PD-L1 (human, UniProt Q9NZQ7)
# T3 construct: whole, on cells
# Test: flow cytometry, SCC152 cells transduced with human PD-L1, anti-human Fc detection
# Sequence of human PD-L1 (Q9NZQ7 19-290): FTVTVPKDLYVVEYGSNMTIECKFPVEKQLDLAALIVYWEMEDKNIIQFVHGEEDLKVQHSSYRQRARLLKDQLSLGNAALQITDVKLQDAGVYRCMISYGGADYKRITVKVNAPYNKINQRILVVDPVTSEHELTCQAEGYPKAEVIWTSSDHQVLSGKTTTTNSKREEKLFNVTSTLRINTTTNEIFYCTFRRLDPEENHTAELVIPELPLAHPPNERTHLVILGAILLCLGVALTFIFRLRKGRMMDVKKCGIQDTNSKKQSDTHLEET
# Protocol: as §1, §2, §3
Binder,Anti-Human Fc (MFI) at 0.8 nM [MFI],Anti-Human Fc (MFI) at 4 nM [MFI],Anti-Human Fc (MFI) at 20 nM [MFI],Anti-Human Fc (MFI) at 100 nM [MFI]
B4,3800,5750,7000,8450

# Target: T4, human PD-L1 on cells (SCC152/PD-L1, K562/OKT3/PD-L1, HCC827, A704) (human, UniProt Q9NZQ7)
# T4 construct: whole, on cells; SCC152 and K562 cells were transduced with PD-L1; HCC827 and A704 are used without a stated transduction of PD-L1; also called cell-surface PD-L1
# Test: flow cytometry on HCC827 cells (PD-L1 65K copies), APC anti-human Fc, median fluorescence intensity
# Protocol: Cells were spun down and resuspended in staining buffer (PBS (phosphate buffered saline), 1% BSA (bovine serum albumin), 1 mM EDTA, and 0.1% sodium azide) for 20 minutes to block non-specific binding. […] Primary staining was performed on ice for 60 minutes, before washing cells in […] staining buffer three times. […] Samples were analyzed CytoFLEX LX flow cytometer (Beckman Coulter, USA). Median Fluorescence Intensity (MFI) was calculated for each cell type using the CytExpert software from Beckman Coulter.
row,Binder,EC50 (read off the curve) [nM]
1,B5,~6
2,B6,~4
3,B7,~0.5
4,B8,~0.5
5,B9,~0.5

# Target: T5, rhu PD-L1 (human, UniProt Q9NZQ7 fragment, limits assumed)
# T5 construct: also called PD-L1 (SPR analyte)
# Test: SPR, rhu PD-L1 analyte, 1:1 model
Binder,Kd [nM],koff [s⁻¹],kon [M⁻¹ s⁻¹]
B10,73.5,0.00355,48400
B11,680,0.00563,8200
B12,265,0.0038,14300
B13,138,0.0028,20300
B14,35.1,0.00581,166000

# Target: rhu PD-L1 (soluble PD-L1 analyte of the SPR experiments) (human, UniProt Q9NZQ7 fragment, limits assumed)
# Test: SPR (Biacore), variant CD80-Fc captured, PD-L1 as analyte, 120 s association and 240 s dissociation
row,Binder,koff [s⁻¹]
1,B15,0.0139
2,B16,0.0072

# Target: T5, rhu PD-L1
# T5 sequence (Q9NZQ7 19-238 limits assumed): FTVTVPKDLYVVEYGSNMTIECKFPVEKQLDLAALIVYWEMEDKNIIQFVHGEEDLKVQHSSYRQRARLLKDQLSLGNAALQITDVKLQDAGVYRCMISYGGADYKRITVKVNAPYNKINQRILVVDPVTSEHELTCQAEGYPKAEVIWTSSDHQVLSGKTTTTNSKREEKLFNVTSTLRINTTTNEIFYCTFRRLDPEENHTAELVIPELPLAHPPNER
# Test: SPR (Biacore), captured CD80-Fc, PD-L1 analyte
Binder,Complex half-life [s],koff [s⁻¹]
B10,50,0.014
B11,50.6,–
B12,42.2,0.016
B13,80.4,0.009

# Target: T6, rhu CD28 (human, UniProt P10747 19-152, limits assumed)
# T6 construct: also called CD28 (SPR analyte)
# Test: SPR, rhu CD28 analyte, 1:1 model
Binder,Kd [nM],koff [s⁻¹],kon [M⁻¹ s⁻¹]
B10,31.7,0.00205,64400
B11,96,0.00616,64100
B12,87.4,0.00601,68800
B13,63.6,0.00394,62000
B14,4.42,0.00032,72400

# Target: T2, human CD28 on cells
# Test: flow cytometry, primary human T cells
# Protocol: as §1, §2, §3
Binder,Anti-Human Fc (MFI) at 0.8 nM [MFI],Anti-Human Fc (MFI) at 4 nM [MFI],Anti-Human Fc (MFI) at 20 nM [MFI],Anti-Human Fc (MFI) at 100 nM [MFI],fold change vs WT CD80 @20 nM [fold]
B1,1660,3080,3600,3640,20
B2,1530,3080,3420,3870,19
B3,611,1650,2970,3690,16.5
